# Measurements from PMC12040169 (PLOS Biology, 2025).
# This is one part of the list.
# System: T1, C. trachomatis L2/434/Bu expressing GFP (CTL2-GFP)
# T1 construct: L2/434/Bu GFP intracellular growth in HeLa cells
# Design: species or system HeLa; C. trachomatis total inclusion area by high-content imaging, normalised to DMSO
# Conditions: total inclusion area; 28.5 h, 10 µM; inhibitor
# Method in brief: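 Host cell viability was gauged from Hoechst-stained nuclei counts, while chlamydial growth was taken from total inclusion area and inclusion number per well. Cells were fixed and imaged by high-content microscopy once bulk GFP and resorufin fluorescence had been measured.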
row,Structure (SMILES),% of control remaining
1,COC(=O)c1sc2ncccc2c1NS(=O)(=O)c1cc(Br)ccc1OC [CBK049971],96.5226
2,O=C(CSc1ncn(-c2ccccc2)n1)c1ccc(Br)cc1 [CBK027014],108.787
3,CCc1nnc(Sc2ccc(C=O)cc2[N+](=O)[O-])[nH]1 [CBK268876],90.2235
4,CCOc1ccc(CN2CCN(C(=O)c3cccc(C#N)c3)CC2)cc1 [CBK304527],23.506
5,Cc1ccc(Cn2c(=N)n(CC(=O)c3ccc(Br)cc3)c3ccccc32)cc1 [CBK262979B],59.0741
6,O=C(N/N=C/c1ccc(O)cc1O)c1[nH]c2ccc([N+](=O)[O-])cc2c1-c1ccccc1 [CBK263328],1.7212
7,O=C(CN1C2CCC1CC(O)(c1ccccc1F)C2)NCC1CC1 (centres unmarked) [CBK281942],101.045
8,COCCn1c(CO)nnc1[C@H]1C[C@@H](NC(=O)c2ccc(C)s2)C1 [CBK307063],75.4641
9,Cn1ccnc1C1CCN(C(=O)NCc2cccc(F)c2)CC1 [CBK304606],36.9353
10,CC1NCCc2c1sc1ccccc21 (centres unmarked) [CBK026032C],62.5926
11,O=C(c1cn2cc(-c3cccs3)n(CC3CC3)c(=O)c2n1)N1CC(O)C1 [CBK306979],108.399
12,Oc1ccccc1-c1n[nH]c(=S)n1-c1ccc(OC(F)(F)F)cc1 [CBK288384],65.3372
13,O=C(Cc1ccccc1[N+](=O)[O-])NCCCN1CCOCC1 [CBK265520],110.84
14,CC(Sc1nc2ccccc2[nH]1)C(=O)Nc1ccc(S(N)(=O)=O)cc1 (centres unmarked) [CBK266128],106.212
15,NC(=O)CSc1nc(NCc2ccccc2)nc(N2CCOCC2)n1 [CBK268923],92.5926
16,O=C(NCCn1nc(-c2cccs2)ccc1=O)C1CCCCC1 [CBK283837],66.7184
17,O=C(Nc1nnc(-c2ccco2)o1)C(c1ccccc1)c1ccccc1 [CBK287424],89.1894
18,COc1ccc(/C=N/NC(=O)c2cc[nH]n2)cc1CSc1nc2ccccc2s1 [CBK263734],94.4194
19,CCCc1[nH]nc(O)c1Cc1ccc(F)cc1F [CBK075015],78.9191
20,Cc1ccc(C(=O)N2CCN(c3ccc(NC(=O)c4ccc(-c5cccc([N+](=O)[O-])c5)o4)cc3)CC2)cc1 [CBK266355],104.066
21,Cn1c(SCc2cc(-c3ccc(Cl)cc3)no2)nnc1-c1ccco1 [CBK295193],120.198
22,CC(C)(C)c1ccc(N(C2CCNCC2)S(=O)(=O)c2ccc(Cl)cc2Cl)cc1 [CBK165067T],9.149
23,NC(=O)C1(N2CCCCC2)CCN(C(=O)CSc2nnc(-c3ccccc3)n2C2CCCCC2)CC1 [CBK266219],94.0928
24,Cc1cccc2c3c([nH]c12)C1(CCCN(C/C=C\c2ccccc2)C1)N(C=O)CC3 (centres unmarked) [CBK040265],88.8032
25,COc1ccccc1CN(CC(C)(C)CN)C(=O)NC1C[C@H]1c1ccccc1 (some centres unmarked) [CBK002424C],71.089

row,Structure (SMILES),% of control remaining
1,COc1ccccc1N1CCN(CC(=O)Nc2cc(Cl)ccc2C)CC1 [CBK270087],102.558
2,O=c1[nH]cc(-c2ccc(F)cc2)cc1CNCc1ccccc1F [CBK284696],90.6144
3,COc1ccc(OCCNC(=O)c2ccc(-c3ccccc3C)nc2N2CCN(C(=O)c3ccco3)CC2)cc1 [CBK076207],120.786
4,CNC(=O)c1ccc(-n2ccnc2)c(-n2cccc2)c1 [CBK282461],111.348
5,Cn1c(=O)c2c(=S)[nH]c(-c3ccccc3)nc2n(C)c1=O [CBK288422],125.407
6,O=C1/C(=C/c2c(NCCCn3ccnc3)nc3ccccn3c2=O)SC(=S)N1CC1CCCO1 (centres unmarked) [CBK111310],85.8656
7,O=C(O)CCC(=O)c1cccc([N+](=O)[O-])c1 [CBK263681],109.151
8,CSc1ccc(-c2nccnc2OCCC(C)C)cc1 [CBK106802],77.638
9,Cc1nc(CC(=O)N2CCC[C@@H]3NC(=O)c4ccccc4OCCCCC[C@@H]32)cs1 [CBK292113],102.249
10,COc1ccc(S(=O)(=O)N(CC(=O)N2CCC(C(N)=O)CC2)c2ccccc2)cc1 [CBK265301],84.0213
11,COc1cccc(-c2cnc3[nH]c(=O)n(CCCO)c3n2)c1 [CBK065036],81.6511
12,CCn1c(C)nnc1SCCNC(=O)c1cnc(N(C)C)nc1C [CBK307135],56.2436
13,OC[C@H]1O[C@@H](n2cnc3c(Cl)nccc32)C[C@H]1O [CBK201273],105.597
14,CC(CSSCC(C)C(=O)O)C(=O)O (centres unmarked) [CBK260940],78.8705
15,CC(NC(=O)Nc1ccc(C(=O)NC(C)(C)C)cc1)c1cccc(Cl)c1 (centres unmarked) [CBK298265],82.5151
16,CC(C)(C)c1csc(NCc2c(O)ccc3ccccc23)n1 [CBK078381],42.5859
17,O=C(C[C@@H]1CCNC[C@@H]1Cc1cc(CN2CCCCC2)on1)N1CCCCC1 [CBK289153],81.0001
18,COc1cc(CN2CCC(N3CCN(c4ccccc4)CC3)CC2)ccc1OCc1ccccc1 [CBK264655G],92.7792
19,O=C(Nc1ccccc1N1CCNCC1)C1CCC1 [CBK004755T],77.7653
20,COC(=O)COc1ccc(Oc2nc(N(C)C)nc(N3CCOCC3)n2)nn1 [CBK267258],123.384
21,O=S(=O)(NCc1ccco1)N1CCOCC1 [CBK268749],97.8208
22,CC(C)CC(=O)N1C[C@H]2NC(=O)c3ccccc3C(=O)[C@@]2(C)C1 [CBK281659],95.3403
23,CN1C(C(=O)O)=CC(c2ccc(F)cc2)=NS1(=O)=O [CBK287016],87.2975
24,CC(C)c1ccc(SCCc2ccccn2)cc1 [CBK026575C],64.2231
25,COc1ccc([C@H]2CN(Cc3ccccc3)[C@@H]3CCN(C(=O)c4ccccc4F)C[C@H]23)cc1 [CBK285542],64.6562
